Experimental data: PubChem BioAssay AID504832 (National Center for Advancing Translational Sciences (NCATS), 2011)
About 18,000 (5.8%) of roughly 310,000 compounds were called active. The shares of active, inactive and inconclusive entries below differ from those in the screen. Calls follow the shape of the dose curve; as a rule, active = well fitted inhibition curve with a large enough effect; inconclusive = small, poorly fitted or top-dose-only effect, or another doubt; inactive = no such curve, though single readings can be large or run the other way. No potency is given beside an inconclusive call; the fits are too rough.

Assay: Primary qHTS for delayed death inhibitors of the malarial parasite plastid, 48 hour incubation
Conditions: P. falciparum luciferase growth in erythrocytes; series mostly up to 28.7 µM; activity change, negative = inhibition: at the top concentration
Outline: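 Erythrocytes infected with P. falciparum carrying an integrated firefly luciferase reporter (2% hematocrit, 0.1% parasitemia final) were exposed to compounds in RPMI 1640 with 0.5% Albumax at 37 C, 5% CO2. Growth inhibition was scored as reduced luminescence.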
% is scaled to controls: 0 for no effect and ±100 for the full control effect; potency is read from the fitted curve at half-maximal effect; tags tell the direction and shape of the fitted curve.

Row | Structure (SMILES) | Potency | activity change, negative = inhibition
1 | O=C(c1cccs1)N1CCCN(c2ncnc3scc(-c4ccccc4)c23)CC1 | active: 5.86 µM | –
2 | COc1ccc2ccc(O)c(CN3CC=C(c4ccccc4)CC3)c2c1 | active: 1.65 µM | –
3 | Cn1c(S(=O)(=O)c2ccc([N+](=O)[O-])cc2)nc(Br)c1Br | inconclusive [inhibitor, partial curve, poor fit] | –
4 | N#Cc1ccc(CO/N=C/c2ccccc2)cc1 | – | inactive: 231%
5 | NS(=O)(=O)c1ccc(CNS(=O)(=O)c2cccc3nonc23)cc1 | – | inactive: 5.83%
6 | COc1ccc(OC)c(-c2csc(NC(=O)Cc3cc(OC)c(OC)c(OC)c3)n2)c1 | inconclusive [inhibitor, partial curve, poor fit] | –
7 | CN(CC(=O)Nc1cccc(F)c1)CC(=O)NC(c1ccccc1)c1ccccc1 | active: 11.7 µM | –
8 | O=C1c2ccc(Oc3ccc([N+](=O)[O-])cc3)cc2C(=O)N1CCCO | inconclusive [inhibitor, full curve, poor fit] | –
9 | COc1ccc([N+](=O)[O-])cc1NC(=O)C1(c2ccccc2)CCOCC1 | inconclusive [inhibitor, full curve, poor fit] | –
10 | COc1ccc(/C=C2\SC(=S)N(Cc3cccnc3)C2=O)cc1C | inconclusive [inhibitor, single point] | –
11 | Cc1nnc(SCc2cc(=O)[nH]c(/N=C(\N)Nc3ccccc3Sc3ccccc3)n2)s1 | inconclusive [inhibitor, partial curve, poor fit] | –
12 | Cc1cccc(N2C(=O)c3cccc4c(N5CCCCC5)c([N+](=O)[O-])cc(c34)C2=O)c1C | – | inactive: -15.9%
13 | O=C(O)c1ccc(COc2ccccc2/C=C2\NC(=O)N(Cc3ccccc3)C2=O)cc1 | inconclusive [inhibitor, single point] | –
14 | O=C(NCC1CCCO1)c1cc2c(s1)CCC2 (centres undefined) | – | inactive: 131%
15 | COc1ccc(-c2[nH]ncc2CN2CCC(C(=O)N3CCOCC3)CC2)c(F)c1 | – | inactive: 15.2%
16 | CN(C)c1ccc(C(CNS(=O)(=O)c2ccc([N+](=O)[O-])cc2)N2CCOCC2)cc1 (centres undefined) | – | inactive: -10.8%
17 | O=C(Nc1cccc(F)c1)Nc1ccc2c(c1)CCC2 | – | inactive: -7.61%
18 | O=C(/C=C/c1ccncc1)c1cc(Cl)ccc1O | inconclusive [inhibitor, partial curve, poor fit] | –
19 | CCc1ccc[n+](-c2[nH]c(=O)sc2/C=N/N=C(\[O-])c2cccnc2)c1 | – | inactive: 0.385%
20 | Cc1cc(N2CCCCC2)nc(N)n1 | inconclusive [inhibitor, partial curve, poor fit] | –
21 | CC(Oc1ccccc1)C(=O)NC1CCCCCCC1 (centres undefined) | – | inactive: -3.97%
22 | C=CCn1c(O)c(C(C)=NCc2cccnc2)c(=O)[nH]c1=O | – | inactive: 20.6%

Row | Structure (SMILES) | Potency | activity change, negative = inhibition
23 | COc1cc(OC)cc(C(=O)Oc2c(CN3CCOCC3)cc(Cl)c3cccnc23)c1 | active: 1.47 µM | –
24 | O=[N+]([O-])c1cc(Cl)cc2c1nc(NCCO)c1ccccc12 | – | inactive: -12.4%
25 | O=C(Nc1ccc(F)cc1)N1CCC(c2nc3c(nnn3Cc3cccc(Cl)c3)c(=O)[nH]2)CC1 | inconclusive [inhibitor, partial curve] | –
26 | COc1cccc(/C=N/NC(=O)c2cccc([N+](=O)[O-])c2)c1OS(=O)(=O)c1ccc(C)cc1 | inconclusive [inhibitor, partial curve, poor fit] | –
27 | COc1ccc(C(=O)Nc2cc(C(F)(F)F)ccc2-n2cnc3ccccc32)cc1 | inconclusive [inhibitor, single point] | –
28 | O=C(O)COCc1nc2ccccc2s1 | – | inactive: -46.8%
29 | CCOC(=O)C1C(=O)CC(O)(c2ccccc2)CC1c1ccccc1 (centres undefined) | inconclusive [inhibitor, partial curve] | –
30 | CCOc1cc(/C=C2\COc3ccccc3C2=O)cc(Br)c1OCC(=O)N(C)C | inconclusive [inhibitor, single point] | –
31 | CCOc1cc(C2C3=C(CC(C)(C)CC3=O)OC3=C2C(=O)CC(C)(C)C3)cc([N+](=O)[O-])c1O | inconclusive [inhibitor, partial curve, poor fit] | –
32 | CCOc1ccc(C(=O)C(C)OC(=O)CN2C(=O)NC(C)(C)C2=O)cc1 (centres undefined) | inconclusive [inhibitor, single point] | –
33 | C[C@H]1CS(=O)(=O)CCN1/N=C\c1ccc([N+](=O)[O-])o1 | inconclusive [inhibitor, single point] | –
34 | Cc1ccn2c(/C=N/OCc3ccc(F)cc3)c(-c3ccc(Cl)cc3)nc2c1 | inconclusive [inhibitor, single point] | –
35 | CCn1c(SC(C)C(=O)NC2CCCC2)nc2cc(S(N)(=O)=O)ccc21 (centres undefined) | inconclusive [inhibitor, single point] | –
36 | COc1cccc(NC(=O)N2CCCC2C(=O)Nc2ccc3c(c2)OCO3)c1 (centres undefined) | inconclusive [inhibitor, single point] | –
37 | CCOc1cc(CNCCSc2nnnn2C)cc(Br)c1OCc1ccccc1 | inconclusive [inhibitor, single point] | –
38 | Cc1cc(C)n2nc(C(=O)OCC(=O)c3cc(C)n(C)c3C)nc2n1 | inconclusive [inhibitor, full curve, poor fit] | –
39 | COCCCn1c(SCC(=O)Nc2ccc(C(=O)OC)cc2)nc2ccccc2c1=O | active: 8.28 µM | –
40 | CCOc1ccc(S(=O)(=O)N(C)CC(=O)NC2CC2)cc1 | inconclusive [inhibitor, partial curve] | –
41 | COc1cccc(/C(C)=N/NC(=O)Cc2c(C)[nH][nH]c2=O)c1 | – | inactive: 4.13%
42 | O=C1CC(c2ccccc2Oc2cccc(Cl)c2)C(n2cncn2)C(=O)C1C1NCCc2ccccc21 (centres undefined) | – | inactive: 0%
43 | CN1C(=O)N(CC(=O)N2CCN(S(=O)(=O)Cc3ccccc3)CC2)C(=O)C12CCCCC2 | inconclusive [inhibitor, single point] | –
44 | C=CCN1C(=O)C(Cc2ccc(C)cc2)S/C1=N/N=C/c1ccco1 (centres undefined) | inconclusive [inhibitor, partial curve] | –
